Drawing on patent US20250011428A1, this text covers Maximum response in RGA assay (LU) for four molecules.

B1: CD3_12 (antibody, human IgG1, lambda)
heavy: EVQLVESGGGLVQPGGSLKLSCAASGFTFNTYAMNWVRQASGKGLEWVGRIRSKYNNYATYYADSVKDRFTISRDDSKSTLYLQMNSLKTEDTAVYYCVRHGNFGNSYVSWFAYWGQGTLVTVSSASTKGPSVFPLAPSSKSTSGGTAALGCLVKDYFPEPVTVSWNSGALTSGVHTFPAVLQSSGLYSLSSVVTVPSSSLGTQTYICNVNHKPSNTKVDKRV[human IgG1 Fc with L235C N297C (EU numbers) cut from this listing]
light: QAVVTQEPSLTVSPGGTVTLTCRSSTGAVTTSNYANWVQQKPGQAPRGLIGGTNKRAPWTPARFSGSLLGDKAALTLSGAQPEDEAEYFCALWYSNLWVFGGGTKLTVLGQPKAAPSVTLFPPSSEELQANKATLVCLISDFYPGAVTVAWKADSSPVKAGVETTTPSKQSNNKYAASSYLSLTPEQWKSHRSYSCQVTHEGSTVEKTVAPTECS
B2: IgG4_CD3_9 (antibody)
heavy: EVQLVESGGGLVQPGGSLKLSCAASGFTFNTYAMNWVRQASGKGLEWVGRIRSKYNNYATYYADSVKDRFTISRDDSKSTLYLQMNSLKTEDTAVYYCVRHGNFGNSYVSWFAYWGQGTLVTVSSASTKGPSVFPLAPCSRSTSESTAALGCLVKDYFPEPVTVSWNSGALTSGVHTFPAVLQSSGLYSLSSVVTVPSSSLGTKTYTCNVDHKPSNTKVDKRV[human IgG4 Fc with L235C (EU numbers) cut from this listing]
light: QAVVTQEPSLTVSPGGTVTLTCRSSTGAVTTSNYANWVQQKPGQAPRGLIGGTNKRAPWTPARFSGSLLGDKAALTLSGAQPEDEAEYFCALWYSNLWVFGGGTKLTVLGQPKAAPSVTLFPPSSEELQANKATLVCLISDFYPGAVTVAWKADSSPVKAGVETTTPSKQSNNKYAASSYLSLTPEQWKSHRSYSCQVTHEGSTVEKTVAPTECS
B3: IgG4_CD3_S228P (antibody)
heavy: EVQLVESGGGLVQPGGSLKLSCAASGFTFNTYAMNWVRQASGKGLEWVGRIRSKYNNYATYYADSVKDRFTISRDDSKSTLYLQMNSLKTEDTAVYYCVRHGNFGNSYVSWFAYWGQGTLVTVSSASTKGPSVFPLAPCSRSTSESTAALGCLVKDYFPEPVTVSWNSGALTSGVHTFPAVLQSSGLYSLSSVVTVPSSSLGTKTYTCNVDHKPSNTKVDKRV[human IgG4 Fc with S228P (EU numbers) cut from this listing]
light: QAVVTQEPSLTVSPGGTVTLTCRSSTGAVTTSNYANWVQQKPGQAPRGLIGGTNKRAPWTPARFSGSLLGDKAALTLSGAQPEDEAEYFCALWYSNLWVFGGGTKLTVLGQPKAAPSVTLFPPSSEELQANKATLVCLISDFYPGAVTVAWKADSSPVKAGVETTTPSKQSNNKYAASSYLSLTPEQWKSHRSYSCQVTHEGSTVEKTVAPTECS
B4: IgG4_CD3_WT (antibody)
heavy: EVQLVESGGGLVQPGGSLKLSCAASGFTFNTYAMNWVRQASGKGLEWVGRIRSKYNNYATYYADSVKDRFTISRDDSKSTLYLQMNSLKTEDTAVYYCVRHGNFGNSYVSWFAYWGQGTLVTVSSASTKGPSVFPLAPCSRSTSESTAALGCLVKDYFPEPVTVSWNSGALTSGVHTFPAVLQSSGLYSLSSVVTVPSSSLGTKTYTCNVDHKPSNTKVDKRV[human IgG4 Fc cut from this listing]
light: QAVVTQEPSLTVSPGGTVTLTCRSSTGAVTTSNYANWVQQKPGQAPRGLIGGTNKRAPWTPARFSGSLLGDKAALTLSGAQPEDEAEYFCALWYSNLWVFGGGTKLTVLGQPKAAPSVTLFPPSSEELQANKATLVCLISDFYPGAVTVAWKADSSPVKAGVETTTPSKQSNNKYAASSYLSLTPEQWKSHRSYSCQVTHEGSTVEKTVAPTECS

For the assay, the target named is Gamma receptors FcγRI, FcγRII, and FcγRIII expressed on THP-1 cells. The assay is described as follows: cell-based or functional assay.
Regarding B1, the Maximum response in RGA assay (LU) stood at 11600 LU.

B2 had a Maximum response in RGA assay (LU) of 5650 LU.

For B3, the Maximum response in RGA assay (LU) came to 34000 LU.

B4: the Maximum response in RGA assay (LU) stood at 36100 LU.
